# Data: the supplement of paper PMC8728848
# This is one part of the list.
# Assays:
# Experiment in all cases: glycan array binding signal (z-score within array); higher = stronger binding
# Settings in all cases: glycan notation: IUPAC condensed, linker removed
# [1] = molecular target: Neu5Ac(a2-3)Gal(b1-3)GlcNAc6S
# In short: (§1)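 Negative Z-scores can be read as non-binding. The Z-score is calculated within each array and then averaged across arrays of one protein sequence at different concentrations or buffers and across linkers. Arrays, 3228 in all, were curated from the Consortium for Functional Glycomics database and kept only where the protein sequence was available.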
# [2] = molecular target: Neu5Ac(a2-3)Gal(b1-3)[Fuc(a1-4)]GlcNAc
# In short: as §1
# [3] = molecular target: Neu5Ac(a2-3)Gal(b1-3)[Fuc(a1-4)]GlcNAc(b1-3)Gal(b1-3)[Fuc(a1-4)]GlcNAc
# In short: as §1
# [4] = molecular target: Neu5Ac(a2-3)Gal(b1-3)[Fuc(a1-4)]GlcNAc(b1-3)Gal(b1-4)[Fuc(a1-3)]GlcNAc
# In short: as §1
# [5] = molecular target: Neu5Ac(a2-3)Gal(b1-3)[GlcNAc(b1-6)]GalNAc
# In short: as §1
# [6] = molecular target: Neu5Ac(a2-3)Gal(b1-3)[Neu5Ac(a2-6)]GalNAc
# In short: as §1
# [7] = molecular target: Neu5Ac(a2-3)Gal(b1-3)[Neu5Ac(a2-6)]GlcNAc(b1-3)[Fuc(a1-3)[Gal(b1-4)]GlcNAc(b1-6)]Gal(b1-4)Glc
# In short: as §1
# [8] = molecular target: Neu5Ac(a2-3)Gal(b1-3)]Neu5Ac(a2-3)Gal(b1-4)]GlcNAc
# In short: as §1
# [9] = molecular target: Neu5Ac(a2-3)Gal(b1-4)Glc
# In short: as §1
# [10] = molecular target: Neu5Ac(a2-3)Gal(b1-4)GlcNAc
# In short: as §1
# [11] = molecular target: Neu5Ac(a2-3)Gal(b1-4)GlcNAc(b1-2)Man
# In short: as §1
# [12] = molecular target: Neu5Ac(a2-3)Gal(b1-4)GlcNAc(b1-2)Man(a1-3)[GlcNAc(b1-4)][Neu5Ac(a2-3)Gal(b1-4)GlcNAc(b1-2)Man(a1-6)]Man(b1-4)GlcNAc(b1-4)GlcNAc
# In short: as §1
# [13] = molecular target: Neu5Ac(a2-3)Gal(b1-4)GlcNAc(b1-2)Man(a1-3)[Neu5Ac(a2-3)Gal(b1-4)GlcNAc(b1-2)Man(a1-6)]Man(b1-4)GlcNAc(b1-4)GlcNAc
# In short: as §1
# [14] = molecular target: Neu5Ac(a2-3)Gal(b1-4)GlcNAc(b1-2)Man(a1-3)[Neu5Ac(a2-3)Gal(b1-4)GlcNAc(b1-2)Man(a1-6)]Man(b1-4)GlcNAc(b1-4)[Fuc(a1-6)]GlcNAc
# In short: as §1
# [15] = molecular target: Neu5Ac(a2-3)Gal(b1-4)GlcNAc(b1-2)Man(a1-3)[Neu5Ac(a2-6)Gal(b1-4)GlcNAc(b1-2)Man(a1-6)]Man(b1-4)GlcNAc(b1-4)GlcNAc
# In short: as §1
# [16] = molecular target: Neu5Ac(a2-3)Gal(b1-4)GlcNAc(b1-2)[Neu5Ac(a2-3)Gal(b1-4)GlcNAc(b1-4)]Man(a1-3)[GlcNAc(b1-4)][Neu5Ac(a2-3)Gal(b1-4)GlcNAc(b1-2)[Neu5Ac(a2-3)Gal(b1-4)GlcNAc(b1-6)]Man(a1-6)]Man(b1-4)GlcNAc(b1-4)GlcNAc
# In short: as §1
# [17] = molecular target: Neu5Ac(a2-3)Gal(b1-4)GlcNAc(b1-2)[Neu5Ac(a2-3)Gal(b1-4)GlcNAc(b1-4)]Man(a1-3)[GlcNAc(b1-4)][Neu5Ac(a2-3)Gal(b1-4)GlcNAc(b1-4)Man(a1-6)]Man(b1-4)GlcNAc(b1-4)GlcNAc
# In short: as §1
# [18] = molecular target: Neu5Ac(a2-3)Gal(b1-4)GlcNAc(b1-2)[Neu5Ac(a2-3)Gal(b1-4)GlcNAc(b1-6)]Man(a1-6)[Neu5Ac(a2-3)Gal(b1-4)GlcNAc(b1-2)Man(a1-3)][GlcNAc(b1-4)]Man(b1-4)GlcNAc(b1-4)GlcNAc
# In short: as §1
# [19] = molecular target: Neu5Ac(a2-3)Gal(b1-4)GlcNAc(b1-3)Gal
# In short: as §1
# [20] = molecular target: Neu5Ac(a2-3)Gal(b1-4)GlcNAc(b1-3)Gal(b1-3)GlcNAc
# In short: as §1
# [21] = molecular target: Neu5Ac(a2-3)Gal(b1-4)GlcNAc(b1-3)Gal(b1-4)GlcNAc
# In short: as §1
# [22] = molecular target: Neu5Ac(a2-3)Gal(b1-4)GlcNAc(b1-3)Gal(b1-4)GlcNAc(b1-2)Man(a1-3)[Neu5Ac(a2-3)Gal(b1-4)GlcNAc(b1-3)Gal(b1-4)GlcNAc(b1-2)Man(a1-6)]Man(b1-4)GlcNAc(b1-4)GlcNAc
# In short: as §1
# [23] = molecular target: Neu5Ac(a2-3)Gal(b1-4)GlcNAc(b1-3)Gal(b1-4)GlcNAc(b1-3)Gal(b1-4)GlcNAc
# In short: as §1
# [24] = molecular target: Neu5Ac(a2-3)Gal(b1-4)GlcNAc(b1-3)Gal(b1-4)GlcNAc(b1-3)Gal(b1-4)GlcNAc(b1-2)Man(a1-3)[Neu5Ac(a2-3)Gal(b1-4)GlcNAc(b1-3)Gal(b1-4)GlcNAc(b1-3)Gal(b1-4)GlcNAc(b1-2)Man(a1-6)]GalNAc
# In short: as §1
# [25] = molecular target: Neu5Ac(a2-3)Gal(b1-4)GlcNAc(b1-3)Gal(b1-4)GlcNAc(b1-3)GalNAc
# In short: as §1
# [26] = molecular target: Neu5Ac(a2-3)Gal(b1-4)GlcNAc(b1-3)Gal(b1-4)GlcNAc(b1-3)[Neu5Ac(a2-3)Gal(b1-4)GlcNAc(b1-3)Gal(b1-4)GlcNAc(b1-6)]GalNAc
# In short: as §1
# [27] = molecular target: Neu5Ac(a2-3)Gal(b1-4)GlcNAc(b1-3)Gal(b1-4)GlcNAc(b1-6)[Gal(b1-3)]GalNAc
# In short: as §1
# [28] = molecular target: Neu5Ac(a2-3)Gal(b1-4)GlcNAc(b1-3)Gal(b1-4)[Fuc(a1-3)]GlcNAc
# In short: as §1
# [29] = molecular target: Neu5Ac(a2-3)Gal(b1-4)GlcNAc(b1-3)GalNAc
# In short: as §1
# [30] = molecular target: Neu5Ac(a2-3)Gal(b1-4)GlcNAc(b1-3)[Neu5Ac(a2-3)Gal(b1-4)GlcNAc(b1-6)]GalNAc
# In short: as §1
binder,measurement,setting,value
"Pa IMPa (Pseudomonas aeruginosa), Q9I5W4 (protein) MSLSTTAFPSLQGENMSRSPIPRHRALLAGFCLAGALSAQAATQEEILDAALVSGDSSQLTDSHLVALRLQQQVERIRQTRTQLLDGLYQNLSQAYDPGAASMWVLPANPDNTLPFLIGDKGRVLASLSLEAGGRGLAYGTNVLTQLSGTNAAHAPLLKRAVQWLVNGDPGAATAKDFKVSVVGVDKTAALNGLKSAGLQPADAACNALTDASCASTSKLLVLGNGASAASLSATVRARLQAGLPILFVHTNGWNQSSTGQQILAGLGLQEGPYGGNYWDKDRVPSSRTRTRSVELGGAYGQDPALVQQIVDGSWRTDYDWSKCTSYVGRTTCDDVPGLSDFSKRVDVLKGALDAYNQKAQNLFALPGTTSLRLWLLWADAVRQNIRYPMDKAADTARFQETFVADAIVGYVREAGAAQKELGSYAGQRQQSMPVSGSEETLTLTLPSAQGFTAIGRMAAPGKRLSIRIEDAGQASLAVGLNTQRIGSTRLWNTRQYDRPRFLKSPDIKLQANQSVALVSPYGGLLQLVYSGATPGQTVTVKVTGAASQPFLDIQPGEDSSQAIADFIQALDADKADWLEIRSGSVEVHAKVEKVRGSIDKDYGGDVQRFIRELNEVFIDDAYTLAGFAIPNQAKTPAIQQECAARGWDCDSETLHKLPGTQHINVDQYAQCGGGCSGNPYDQTWGLNPRGWGESHELGHNLQVNRLKVYGGRSGEISNQIFPLHKDWRVLREFGQNLDDTRVNYRNAYNLIVAGRAEADPLAGVYKRLWEDPGTYALNGERMAFYTQWVHYWADLKNDPLQGWDIWTLLYLHQRQVDKSDWDANKAALGYGTYAQRPGNSGDASSTDGNDNLLLGLSWLTQRDQRPTFALWGIRTSAAAQAQVAAYGFAEQPAFFYANNRTNEYSTVKLLDMSQGSPAWPFP",glycan array binding signal (z-score),[1],0.117
same,glycan array binding signal (z-score),[2],-0.15
same,glycan array binding signal (z-score),[3],-0.544
same,glycan array binding signal (z-score),[4],-0.405
same,glycan array binding signal (z-score),[5],0.532
same,glycan array binding signal (z-score),[6],0.005
same,glycan array binding signal (z-score),[7],-0.241
same,glycan array binding signal (z-score),[8],-0.06
same,glycan array binding signal (z-score),[9],-0.167
same,glycan array binding signal (z-score),[10],-0.444
same,glycan array binding signal (z-score),[11],0.389
same,glycan array binding signal (z-score),[12],-0.598
same,glycan array binding signal (z-score),[13],-0.388
same,glycan array binding signal (z-score),[14],0.066
same,glycan array binding signal (z-score),[15],1.22
same,glycan array binding signal (z-score),[16],-0.116
same,glycan array binding signal (z-score),[17],1.01
same,glycan array binding signal (z-score),[18],-0.802
same,glycan array binding signal (z-score),[19],1.1
same,glycan array binding signal (z-score),[20],0.154
same,glycan array binding signal (z-score),[21],-0.359
same,glycan array binding signal (z-score),[22],-0.226
same,glycan array binding signal (z-score),[23],-0.124
same,glycan array binding signal (z-score),[24],0.19
same,glycan array binding signal (z-score),[25],-0.642
same,glycan array binding signal (z-score),[26],-0.462
same,glycan array binding signal (z-score),[27],0.35
same,glycan array binding signal (z-score),[28],-0.597
same,glycan array binding signal (z-score),[29],-0.307
same,glycan array binding signal (z-score),[30],0.065
